Reference: publication PMC11849937, “Atractylenolide I inhibits angiogenesis and reverses sunitinib resistance in clear cell renal cell carcinoma through ATP6V0D2-mediated autophagic degradation of EPAS1/HIF2α” (Autophagy, 2024)

Molecular target: T1, GST-tagged ATP6V0D2 (UniProt Q8N8Y2)
T1 construct: ATP6V0D2, ATPase H+ transporting V0 subunit d2; Construct bought from Tsingke Biotechnology; also called GST-ATP6V0D2; source: BL21 (Rosetta) bacterial cells, purified (glutathione-Sepharose beads)
Test: pull-down; GST-tagged protein (2.5 ug) immobilised on glutathione-Sepharose beads, incubated with His-RAB7, His-VPS41 or both in affinity-isolation buffer with PMSF; western blot
Conditions: both partners purified

binding result: binds
B1: His-RAB7 (recombinant, bacterial) (natural protein)
chain: not shown
notes: RAB7; The only His-RAB7 plasmid that the methods name is in the vector pGMLV; source: BL21 (Rosetta) bacterial cells, purified (His beads)
